The values that follow come from ChEMBL document CHEMBL4888484, “Replenishing the malaria drug discovery pipeline: Screening and hit evaluation of the MMV Hit Generation Library 1 (HGL1) against asexual blood stage Plasmodium falciparum ,using a nano luciferase reporter read-out” (2022).

The whole screen tested about 150,000 compounds, of which about 540 (0.36%) showed an effect of 50% or more. The list shows a part of the results.

As usually defined, the % Inhibition is the change of the read-out against control, counted positive when it falls.

This experiment has as its system Plasmodium falciparum. Briefly: Primary screen in NF54 nanoGlo assay, in single point, at 2uM, 72h; a lower Z score goes with more inhibition. It is filed as functional, Erythrocyte. To be noted: timepoint 72 hour.
Turning to `O=C1CN(C(=O)c2ccc3c(n2)CCCC3)CN1CC1CC1`, the “% Inhibition” value is on record as -11% and the Z score was 1.41.
With `Cc1nc(N)sc1C(=O)N[C@@H]1C[C@@H](CO)N(C)C1`, the “% Inhibition” value is -15% and the Z score came out at 1.95.
For `COc1ccc2cc(C(=O)N3CC[C@@]4(CN(C)C(=O)CO4)C3)n(C)c2c1`, in that order: -8% and 0.93.
Take `CCc1ccc(CC(=O)N2CC3(CCC3)[C@@H]2C2CC2)nc1`: the “% Inhibition” value is -12% and the Z score is reported as 1.54.
Turning to `Cn1cccc1CNC1c2ccccc2CC1O` (stereo unspecified), the “% Inhibition” value came out at 1% and the Z score was -0.18.
For `C[C@H]1CCCN(S(=O)(=O)NCCCn2cccn2)C1`, in that order: -3% and 0.5.
For the molecule `O=C(NCCc1csc(-n2cccn2)n1)c1cnccn1`, the “% Inhibition” value stood at 0% and the Z score stood at 0.
On to `Cc1nnccc1NC(=O)NCc1ccc2c(c1)C[C@H](C)O2`, for which the “% Inhibition” value was -4% and the Z score was determined as 0.72.
For `COc1ccccc1N1CCN(c2nc3ccc(C)cc3cc2-c2noc(C)n2)CC1`, in that order: -4% and 0.79.
For `CCOC(=O)c1cnn2ccc(NC(=O)[C@@H]3CCCCO3)cc12`, in that order: -16% and 2.17.
On the same counts, the results for `COc1cccc(CC(=O)OC2CCN(c3nncc4ccccc34)CC2)c1` are 4% and -0.58.
For the molecule `CCOC(=O)[C@H]1CCCN(C(=O)c2coc(CN(CCc3c[nH]c4ccccc34)Cc3ccc(C)cc3C)n2)C1`, the “% Inhibition” value was -11% and the Z score is listed as 1.23.
On the same counts, the results for `Cn1ccnc1CN(CCO)C(=O)CCc1ccncc1` are -18% and 2.13.
On the same counts, the results for `Fc1ccc(-c2noc(CN3CCOC4CCCCC43)n2)cc1` (stereo unspecified) are -9% and 1.45.
For `CC(C)(C)OC(=O)N1C2CCCC1CN(Cc1ccc(CO)o1)C2`, in that order: 6% and -0.92.
As to `COC[C@H](Nc1nnc(C2CCC2)o1)c1ccnn1C`, the “% Inhibition” value is listed as 1% and the Z score is recorded as -0.08.
Take `COC(=O)c1ccc(C(C)C)c(NC(N)=O)c1`: the “% Inhibition” value was -6% and the Z score was 1.16.
Regarding `CN(C)c1cc2c(cc1NC(=O)Nc1ccccc1C(F)(F)F)n(C)c(=O)n2C`, the “% Inhibition” value was -4% and the Z score is reported as 0.83.
Regarding `COC(=O)c1cncnc1N(C)C[C@H](C)C(=O)OC`, the “% Inhibition” value was -2% and the Z score is 0.29.
For `OC[C@@]12CCC[C@@H]1CN(c1nccc(C(F)(F)F)n1)C2`, in that order: -5% and 0.82.
For `O=C(c1cc(-c2ccccc2F)n[nH]1)N(Cc1ccccn1)Cc1ccco1`, in that order: -29% and 3.7.
For `CCN(CC)C(=O)[C@@H]1CCCN1C(=O)CCCc1ccccn1`, in that order: 38% and -5.55.
Regarding `N#Cc1csc(CN2CCCC[C@H]2C(=O)N2CCOCC2)c1`, the “% Inhibition” value is -6% and the Z score was determined as 1.04.
Regarding `Cc1cc(-c2ccc(C(=O)NCCc3noc(CO)n3)cc2)cc(C)n1`, the “% Inhibition” value is listed as -4% and the Z score was 0.83.
For `Cc1ccc(CNc2ncncc2-c2nc(-c3ccccc3)no2)cc1`, in that order: -1% and 0.22.
For `O=C1N[C@@](c2ccccc2)(C(F)(F)F)C(=O)N1CN(C1CCCC1)C1CC1`, in that order: -5% and 0.48.
In the case of `Cn1ncc2c(N[C@H]3CCc4ccccc43)ncnc21`, the “% Inhibition” value was -9% and the Z score worked out at 0.75.
For `COc1ccc(-c2csc3ncnc(NCC(=O)N4CCCC4)c23)cc1`, in that order: 4% and -0.67.
Consider `Cc1sc2ccccc2c1-c1cn(Cc2ccccn2)nn1`, for which the “% Inhibition” value is listed as -5% and the Z score was found to be 0.56.
With `Cn1cnc(O[C@H]2CCCc3ccccc32)cc1=O`, the “% Inhibition” value came out at 1% and the Z score is on record as -0.13.
Regarding `CCC1(CC)CN(S(=O)(=O)c2cnc3c(cnn3C)c2)C1`, the “% Inhibition” value was -17% and the Z score turned out to be 2.63.
For the molecule `Cc1nc(CC(=O)NC2Cc3ccccc3C2)cs1`, the “% Inhibition” value is recorded as -15% and the Z score turned out to be 2.55.
For `C(=C\c1ccccc1)/Cn1cc(-c2nc(-c3cn4ccccc4n3)no2)nn1`, the “% Inhibition” value is given as -1% and the Z score stood at 0.1.
In the case of `CN(C)C(=O)c1cnc(N2CC3CC4CC3C2C4O)c(Cl)c1` (stereo unspecified), the “% Inhibition” value was -8% and the Z score stood at 1.05.
On the same counts, the results for `Nc1ccn(Cc2ccccc2)c(=O)n1` are 6% and -0.93.
In the case of `Cc1nc(N)nc(NCCN2CCC[C@H](CO)C2)c1Cl`, the “% Inhibition” value is -7% and the Z score came out at 0.87.
`Cc1cccc(C(=O)N2N=C(c3cccnc3)C[C@]2(O)C(F)(F)F)c1O`: the “% Inhibition” value is -8% and the Z score was 1.
`CCN1C(=O)Cc2cc(NS(=O)(=O)Cc3ccccc3)ccc21`: the “% Inhibition” value is on record as 38% and the Z score was -5.52.
For `COC(=O)c1ccccc1Nc1nc(-c2ccccc2)cc(-c2ccccc2)n1`, the “% Inhibition” value was determined as 1% and the Z score was -0.1.
Take `O=C1CCC(c2ccccc2)(c2ccccc2)CN1Cc1ncc[nH]1`: the “% Inhibition” value worked out at 5% and the Z score was -1.09.
Turning to `Cn1nccc1C(=O)Nc1ccc(-c2cc3cc(Cl)ccc3[nH]2)cc1`, the “% Inhibition” value is on record as 9% and the Z score was -1.01.
As for `Cc1n[nH]cc1CN(C)S(=O)(=O)c1cn[nH]c1`, the “% Inhibition” value is on record as -8% and the Z score turned out to be 1.46.
For `Cc1nc(N2CCN(C(=O)C3CCCC3)CC2)cc(-n2ccnc2)n1`, in that order: -19% and 3.34.
